# Test results: the supplement of paper PMC8728848
# Some of the results follow.
# B1: PX14367B-bvu-516-23-516 (Bacteroides vulgatus) (protein)
# chain: LDTIPTTYVDAGSVFGKTGDAEKVLNGGWNYLMETFNSYANPGYGAMLRANDAMGSDVVLNSKYGFRTHNEFSAIYGKGGTNTLSWLLAYRVINDCNGVLDNIDAAEGTQADRNRIKGQALALRGFLYLHLASCYSFAIDKDPDAVCAPIYTQSTDETIAAEGKPASSVSEVYAQSINDLEEALELIPETYVRDAKHKIDNEVVLGILSRACLYARQWEKAKTYSDKLLAKDNYLMTESEYKAGFNSVDNKEWIWGHAQTNDQSNASYQFHYLDTTTKGSYYYSFNVDPYFRDLFEDGDYRKEMLFWATDPGADVESAAYVWMRNSKFRFRDIENQLGDIVLMRVAEIYLINAEAKAHLNDPDAINKLNDLKTARGAKTIHTNLSQQDLLETIWLERRKELWGEGFSLIDIIRNQQTVVRNAYPEGPIDYIYTDENGQTHTLKKKTQGHRFFNFPDKSAFCPNSKYYLYRITDSEELANKNLYKDHPKLSIYTK
# Experiments:
# Assay in all cases: glycan array binding signal (z-score within array); higher = stronger binding
# Settings in all cases: glycan notation: IUPAC condensed, linker removed
# [1] = target: Fuc(a1-2)Gal6S(b1-3)GlcNAc6S
# Outline: (§1)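 The binding signal is a Z-score computed within each array. Data were drawn from 3228 arrays in the Consortium for Functional Glycomics database, restricted to those with a known protein sequence. Scores were averaged over arrays of the same protein sequence at different concentrations or buffers, and over linkers, and negative values can be taken as non-binding.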
# Fuc(a1-2)Gal6S(b1-4)Glc = target: Fuc(a1-2)Gal6S(b1-4)Glc
# Outline: as §1
# [2] = target: Fuc(a1-2)Gal6S(b1-4)Glc6S
# Outline: as §1
# Fuc(a1-2)[Gal(a1-3)]Gal = target: Fuc(a1-2)[Gal(a1-3)]Gal
# Outline: as §1
# [3] = target: Fuc(a1-2)[Gal(a1-3)]Gal(b1-3)GalNAc
# Outline: as §1
# [4] = target: Fuc(a1-2)[Gal(a1-3)]Gal(b1-3)GalNAc(b1-3)Gal(a1-4)Gal(b1-4)Glc
# Outline: as §1
# [5] = target: Fuc(a1-2)[Gal(a1-3)]Gal(b1-3)GlcNAc
# Outline: as §1
# [6] = target: Fuc(a1-2)[Gal(a1-3)]Gal(b1-3)GlcNAc(b1-2)Man(a1-3)[Fuc(a1-2)[Gal(a1-3)]Gal(b1-3)GlcNAc(b1-2)Man(a1-6)]Man(b1-4)GlcNAc(b1-4)GlcNAc
# Outline: as §1
# [7] = target: Fuc(a1-2)[Gal(a1-3)]Gal(b1-3)GlcNAc(b1-2)Man(a1-3)[Fuc(a1-2)[Gal(a1-3)]Gal(b1-3)GlcNAc(b1-2)Man(a1-6)]Man(b1-4)GlcNAc(b1-4)[Fuc(a1-6)]GlcNAc
# Outline: as §1
# [8] = target: Fuc(a1-2)[Gal(a1-3)]Gal(b1-3)GlcNAc(b1-3)GalNAc
# Outline: as §1
# [9] = target: Fuc(a1-2)[Gal(a1-3)]Gal(b1-3)GlcNAc(b1-6)GalNAc
# Outline: as §1
# [10] = target: Fuc(a1-2)[Gal(a1-3)]Gal(b1-4)Glc
# Outline: as §1
# [11] = target: Fuc(a1-2)[Gal(a1-3)]Gal(b1-4)GlcNAc
# Outline: as §1
# [12] = target: Fuc(a1-2)[Gal(a1-3)]Gal(b1-4)GlcNAc(b1-2)Man
# Outline: as §1
# [13] = target: Fuc(a1-2)[Gal(a1-3)]Gal(b1-4)GlcNAc(b1-2)Man(a1-3)[Fuc(a1-2)[Gal(a1-3)]Gal(b1-4)GlcNAc(b1-2)Man(a1-6)]Man(b1-4)GlcNAc(b1-4)GlcNAc
# Outline: as §1
# [14] = target: Fuc(a1-2)[Gal(a1-3)]Gal(b1-4)GlcNAc(b1-2)Man(a1-3)[Fuc(a1-2)[Gal(a1-3)]Gal(b1-4)GlcNAc(b1-2)Man(a1-6)]Man(b1-4)GlcNAc(b1-4)[Fuc(a1-6)]GlcNAc
# Outline: as §1
# [15] = target: Fuc(a1-2)[Gal(a1-3)]Gal(b1-4)GlcNAc(b1-3)GalNAc
# Outline: as §1
# [16] = target: Fuc(a1-2)[Gal(a1-3)]Gal(b1-4)GlcNAc(b1-3)[Fuc(a1-2)[Gal(a1-3)]Gal(b1-4)GlcNAc(b1-6)]GalNAc
# Outline: as §1
# [17] = target: Fuc(a1-2)[Gal(a1-3)]Gal(b1-4)GlcNAc(b1-6)GalNAc
# Outline: as §1
# [18] = target: Fuc(a1-2)[Gal(a1-3)]Gal(b1-4)[Fuc(a1-3)]Glc
# Outline: as §1
# [19] = target: Fuc(a1-2)[Gal(a1-3)]Gal(b1-4)[Fuc(a1-3)]GlcNAc
# Outline: as §1
# [20] = target: Fuc(a1-2)[Gal(a1-3)]Gal(b1-4)[Fuc(a1-3)]GlcNAc(b1-3)GalNAc
# Outline: as §1
# [21] = target: Fuc(a1-2)[Gal(a1-4)]Gal(b1-4)GlcNAc
# Outline: as §1
# [22] = target: Fuc(a1-2)[GalNAc(a1-3)]Gal
# Outline: as §1
# [23] = target: Fuc(a1-2)[GalNAc(a1-3)]Gal(b1-3)GalNAc(a1-3)[Fuc(a1-2)]Gal(b1-4)GlcNAc
# Outline: as §1
# [24] = target: Fuc(a1-2)[GalNAc(a1-3)]Gal(b1-3)GalNAc(b1-3)Gal(a1-4)Gal(b1-4)Glc
# Outline: as §1
# [25] = target: Fuc(a1-2)[GalNAc(a1-3)]Gal(b1-3)GlcNAc
# Outline: as §1
# [26] = target: Fuc(a1-2)[GalNAc(a1-3)]Gal(b1-3)GlcNAc(b1-2)Man(a1-3)[Fuc(a1-2)[GalNAc(a1-3)]Gal(b1-3)GlcNAc(b1-2)Man(a1-6)]Man(b1-4)GlcNAc(b1-4)GlcNAc
# Outline: as §1
# [27] = target: Fuc(a1-2)[GalNAc(a1-3)]Gal(b1-3)GlcNAc(b1-2)Man(a1-3)[Fuc(a1-2)[GalNAc(a1-3)]Gal(b1-3)GlcNAc(b1-2)Man(a1-6)]Man(b1-4)GlcNAc(b1-4)[Fuc(a1-6)]GlcNAc
# Outline: as §1
# [28] = target: Fuc(a1-2)[GalNAc(a1-3)]Gal(b1-3)GlcNAc(b1-3)GalNAc
# Outline: as §1
# [29] = target: Fuc(a1-2)[GalNAc(a1-3)]Gal(b1-3)GlcNAc(b1-6)GalNAc
# Outline: as §1
# [30] = target: Fuc(a1-2)[GalNAc(a1-3)]Gal(b1-4)Glc
# Outline: as §1
# [31] = target: Fuc(a1-2)[GalNAc(a1-3)]Gal(b1-4)GlcNAc
# Outline: as §1
# [32] = target: Fuc(a1-2)[GalNAc(a1-3)]Gal(b1-4)GlcNAc(b1-2)Man
# Outline: as §1
# [33] = target: Fuc(a1-2)[GalNAc(a1-3)]Gal(b1-4)GlcNAc(b1-2)Man(a1-3)[Fuc(a1-2)[GalNAc(a1-3)]Gal(b1-4)GlcNAc(b1-2)Man(a1-6)]Man(b1-4)GlcNAc(b1-4)GlcNAc
# Outline: as §1
# [34] = target: Fuc(a1-2)[GalNAc(a1-3)]Gal(b1-4)GlcNAc(b1-2)Man(a1-3)[Fuc(a1-2)[GalNAc(a1-3)]Gal(b1-4)GlcNAc(b1-2)Man(a1-6)]Man(b1-4)GlcNAc(b1-4)[Fuc(a1-6)]GlcNAc
# Outline: as §1
# [35] = target: Fuc(a1-2)[GalNAc(a1-3)]Gal(b1-4)GlcNAc(b1-3)Gal(b1-4)GlcNAc
# Outline: as §1
# [36] = target: Fuc(a1-2)[GalNAc(a1-3)]Gal(b1-4)GlcNAc(b1-3)Gal(b1-4)GlcNAc(b1-3)Gal(b1-4)GlcNAc
# Outline: as §1
# [37] = target: Fuc(a1-2)[GalNAc(a1-3)]Gal(b1-4)GlcNAc(b1-3)GalNAc
# Outline: as §1
# [38] = target: Fuc(a1-2)[GalNAc(a1-3)]Gal(b1-4)GlcNAc(b1-3)[Fuc(a1-2)[GalNAc(a1-3)]Gal(b1-4)GlcNAc(b1-6)]GalNAc
# Outline: as §1
# [39] = target: Fuc(a1-2)[GalNAc(a1-3)]Gal(b1-4)GlcNAc(b1-6)GalNAc
# Outline: as §1
# [40] = target: Fuc(a1-2)[GalNAc(a1-3)]Gal(b1-4)[Fuc(a1-3)]GlcNAc
# Outline: as §1
# [41] = target: Fuc(a1-2)[GalNAc(a1-3)]Gal(b1-4)[Fuc(a1-3)]GlcNAc(b1-3)GalNAc
# Outline: as §1
# [42] = target: Fuc(a1-2)[GalNAc(a1-4)]Gal(b1-4)GlcNAc
# Outline: as §1
# [43] = target: Fuc(a1-2)[GalNAc(b1-3)]Gal
# Outline: as §1
binder,measurement,setting,value
B1,glycan array binding signal (z-score),[1],-0.232
same,glycan array binding signal (z-score),Fuc(a1-2)Gal6S(b1-4)Glc,-0.343
same,glycan array binding signal (z-score),[2],-0.151
same,glycan array binding signal (z-score),Fuc(a1-2)[Gal(a1-3)]Gal,-0.296
same,glycan array binding signal (z-score),[3],-0.219
same,glycan array binding signal (z-score),[4],-0.329
same,glycan array binding signal (z-score),[5],-0.288
same,glycan array binding signal (z-score),[6],0.559
same,glycan array binding signal (z-score),[7],-0.25
same,glycan array binding signal (z-score),[8],-0.384
same,glycan array binding signal (z-score),[9],-0.326
same,glycan array binding signal (z-score),[10],-0.376
same,glycan array binding signal (z-score),[11],-0.332
same,glycan array binding signal (z-score),[12],-0.324
same,glycan array binding signal (z-score),[13],2.56
same,glycan array binding signal (z-score),[14],-0.066
same,glycan array binding signal (z-score),[15],-0.334
same,glycan array binding signal (z-score),[16],-0.244
same,glycan array binding signal (z-score),[17],-0.278
same,glycan array binding signal (z-score),[18],-0.383
same,glycan array binding signal (z-score),[19],-0.255
same,glycan array binding signal (z-score),[20],1.33
same,glycan array binding signal (z-score),[21],-0.101
same,glycan array binding signal (z-score),[22],-0.307
same,glycan array binding signal (z-score),[23],-0.383
same,glycan array binding signal (z-score),[24],-0.359
same,glycan array binding signal (z-score),[25],-0.316
same,glycan array binding signal (z-score),[26],-0.086
same,glycan array binding signal (z-score),[27],-0.232
same,glycan array binding signal (z-score),[28],-0.26
same,glycan array binding signal (z-score),[29],-0.382
same,glycan array binding signal (z-score),[30],-0.308
same,glycan array binding signal (z-score),[31],-0.36
same,glycan array binding signal (z-score),[32],-0.332
same,glycan array binding signal (z-score),[33],7.56
same,glycan array binding signal (z-score),[34],-0.315
same,glycan array binding signal (z-score),[35],-0.267
same,glycan array binding signal (z-score),[36],-0.04
same,glycan array binding signal (z-score),[37],-0.244
same,glycan array binding signal (z-score),[38],-0.308
same,glycan array binding signal (z-score),[39],-0.216
same,glycan array binding signal (z-score),[40],-0.369
same,glycan array binding signal (z-score),[41],0.034
same,glycan array binding signal (z-score),[42],4.75
same,glycan array binding signal (z-score),[43],2.63
